# PubChem BioAssay AID330 (DTP/NCI, 2004)
# “And” between values parts separate entries of the source, which are not always exact repeats. Equal entries are not always repeated. Further values from the same series stand in other lists. Inconclusive results and toxic doses are left out.
# System: P388 leukemia ip, CD2F1 mice, survival T/C
# Test: NCI In Vivo Anticancer Drug Screen. Data for tumor model P388 Leukemia (intraperitoneal) in CD2F1 (CDF1) mice
# Conditions: endpoint: median survival time, higher = longer survival
# Protocol: The antitumor activity of compounds was measured in mice bearing transplantable tumors. Survival or tumor size were measured and the results are expressed as the measurement made in the treated group (T) divided by the measurement made in the vehicle treated control group (C). The tumor model used in this assay is P388 Leukemia (intraperitoneal) in CD2F1 (CDF1) mice
structure (smiles),measurement,setting,value
COc1cc(NCc2ccc3nc(N)nc(N)c3c2C)cc(OC)c1OC,T/C,"dose: 15.0 mg/kg/injection, schedule: Q03HX024 (ip), vehicle: water",201 % of control
same,T/C,"dose: 30.0 mg/kg/injection, schedule: Q03HX024 (ip), vehicle: water",218 % of control
same,T/C,"dose: 60.0 mg/kg/injection, schedule: Q01DX009 (oral), vehicle: water",95 % of control
same,T/C,"dose: 67.1 mg/kg/injection, schedule: Q01DX009 (ip), vehicle: water",189 % of control
same,T/C,"dose: 960.0 mg/kg/injection, schedule: Q01DX001 (oral), vehicle: water",91 % of control
COc1cccc2c1C(=O)c1c(O)c3c(c(O)c1C2=O)CC(O)(C(=O)CO)CC3OC1CC(N)C(O)C(C)O1 (configuration not stated),T/C,"dose: 0.13 mg/kg/injection, schedule: Q04DX003 (ip), vehicle: distilled water + Tween-80",110 % of control
same,T/C,"dose: 0.25 mg/kg/injection, schedule: Q04DX003 (ip), vehicle: water",109 % of control and 107 % of control
same,T/C,"dose: 0.38 mg/kg/injection, schedule: Q01DX009 (ip), vehicle: water",155 % of control and 167 % of control
same,T/C,"dose: 0.5 mg/kg/injection, schedule: Q04DX003 (ip), vehicle: water",105 % of control and 113 % of control
same,T/C,"dose: 0.75 mg/kg/injection, schedule: Q01DX009 (ip), vehicle: water",183 % of control and 193 % of control
same,T/C,"dose: 1.0 mg/kg/injection, schedule: Q04DX003 (ip), vehicle: saline",105 % of control and 108 % of control
same,T/C,"dose: 1.13 mg/kg/injection, schedule: Q04DX003 (ip), vehicle: water",110 % of control and 111 % of control
same,T/C,"dose: 1.5 mg/kg/injection, schedule: Q01DX009 (ip), vehicle: water",174 % of control and 201 % of control
same,T/C,"dose: 2.0 mg/kg/injection, schedule: Q04DX003 (ip), vehicle: saline",100 % of control
same,T/C,"dose: 2.0 mg/kg/injection, schedule: Q04DX003 (ip), vehicle: water",122 % of control
same,T/C,"dose: 2.25 mg/kg/injection, schedule: Q04DX003 (ip), vehicle: water",118 % of control
same,T/C,"dose: 4.0 mg/kg/injection, schedule: Q04DX003 (ip), vehicle: distilled water + Tween-80",105 % of control
same,T/C,"dose: 4.5 mg/kg/injection, schedule: Q04DX003 (ip), vehicle: water",111 % of control
same,T/C,"dose: 8.0 mg/kg/injection, schedule: Q04DX003 (ip), vehicle: saline",108 % of control
same,T/C,"dose: 8.0 mg/kg/injection, schedule: Q04DX003 (ip), vehicle: water",99 % of control [middle of 4 runs]
same,T/C,"dose: 9.0 mg/kg/injection, schedule: Q04DX003 (ip), vehicle: water",154 % of control
same,T/C,"dose: 16.0 mg/kg/injection, schedule: Q04DX003 (ip), vehicle: saline",120 % of control and 95 % of control
same,T/C,"dose: 16.0 mg/kg/injection, schedule: Q04DX003 (ip), vehicle: water",100 % of control
same,T/C,"dose: 22.0 mg/kg/injection, schedule: Q04DX003 (ip), vehicle: water",117 % of control and 122 % of control
same,T/C,"dose: 32.0 mg/kg/injection, schedule: Q04DX003 (ip), vehicle: water",110 % of control
same,T/C,"dose: 36.0 mg/kg/injection, schedule: Q04DX003 (ip), vehicle: water",102 % of control and 93 % of control
same,T/C,"dose: 75.0 mg/kg/injection, schedule: Q04DX003 (ip), vehicle: water",104 % of control
same,T/C,"dose: 88.0 mg/kg/injection, schedule: Q04DX003 (ip), vehicle: water",192 % of control
same,T/C,"dose: 128.0 mg/kg/injection, schedule: Q04DX003 (ip), vehicle: water",168 % of control
same,T/C,"dose: 133.0 mg/kg/injection, schedule: Q04DX003 (ip), vehicle: water",283 % of control
same,T/C,"dose: 150.0 mg/kg/injection, schedule: Q04DX003 (ip), vehicle: water",98 % of control
same,T/C,"dose: 192.0 mg/kg/injection, schedule: Q04DX003 (ip), vehicle: water",221 % of control
